# Laboratory results reported in US20250250343A1 (UNITY BIOTECHNOLOGY, published 2025).
# Target: human Tie2 (human, UniProt Q02763 23-1124)
# Test: cell-based or functional assay
# UniProt Q02763, sequence (Q02763 23-1124): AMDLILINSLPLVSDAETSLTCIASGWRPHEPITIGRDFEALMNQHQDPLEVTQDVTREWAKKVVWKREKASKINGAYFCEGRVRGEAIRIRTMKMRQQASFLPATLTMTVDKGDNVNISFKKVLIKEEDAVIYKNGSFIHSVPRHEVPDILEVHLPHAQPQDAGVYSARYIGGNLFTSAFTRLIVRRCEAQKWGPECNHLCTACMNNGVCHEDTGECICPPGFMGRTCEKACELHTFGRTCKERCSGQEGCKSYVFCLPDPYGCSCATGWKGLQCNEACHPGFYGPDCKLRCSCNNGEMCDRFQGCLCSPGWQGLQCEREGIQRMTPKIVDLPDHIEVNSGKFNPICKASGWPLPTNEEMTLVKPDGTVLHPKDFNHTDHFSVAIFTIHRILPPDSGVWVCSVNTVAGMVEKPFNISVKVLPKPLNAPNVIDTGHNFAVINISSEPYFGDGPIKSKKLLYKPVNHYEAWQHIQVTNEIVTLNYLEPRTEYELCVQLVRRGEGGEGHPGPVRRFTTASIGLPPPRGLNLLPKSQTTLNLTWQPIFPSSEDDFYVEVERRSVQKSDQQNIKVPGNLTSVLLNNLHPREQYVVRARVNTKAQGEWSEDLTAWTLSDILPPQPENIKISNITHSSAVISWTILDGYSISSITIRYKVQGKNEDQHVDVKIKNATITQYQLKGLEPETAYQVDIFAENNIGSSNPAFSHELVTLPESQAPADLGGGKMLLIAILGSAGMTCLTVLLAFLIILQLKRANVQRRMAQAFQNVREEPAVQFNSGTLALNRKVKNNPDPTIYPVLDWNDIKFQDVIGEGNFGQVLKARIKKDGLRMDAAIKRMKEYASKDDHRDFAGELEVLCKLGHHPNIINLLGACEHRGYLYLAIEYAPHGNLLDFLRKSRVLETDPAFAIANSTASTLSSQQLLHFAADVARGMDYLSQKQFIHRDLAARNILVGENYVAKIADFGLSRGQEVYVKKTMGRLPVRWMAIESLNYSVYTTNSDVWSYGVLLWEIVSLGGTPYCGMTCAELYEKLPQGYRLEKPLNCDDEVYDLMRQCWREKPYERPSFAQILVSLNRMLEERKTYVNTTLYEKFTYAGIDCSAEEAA
row,Binder,"EC50, pTie2 in HUVEC (in vitro potency; the sheet's head prints no unit, EC50 in nM per legend paragraph 17) [nM]"
1,"#16 (bispecific antibody, human IgG1, kappa, L234A L235A) heavy chain: DVQLVESGGGVVRPGESLRLSCTASGFTFDSYGMSWVRQAPGKGLEWVSSINVGDNTYYADSVRGRFIISRDSSRNTLYLQMNSLTAEDTAVYYCANWNSFFDYWGLGTLVTVSSASTKGPSVFPLAPSSKSTSGGTAALGCLVKDYFPEPVTVSWNSGALTSGVHTFPAVLQSSGLYSLSSVVTVPSSSLGTQTYICNVNHKPSNTKVDKKVEPKSCDKTHTCPPCPAPEAAGGPSVFLFPPKPKDTLMISRTPEVTCVVVDVSHEDPEVKFNWYVDGVEVHNAKTKPREEQYNSTYRVVSVLTVLHQDWLNGKEYKCKVSNKALGAPIEKTISKAKGQPREPQVYTLPPSREEMTKNQVSLTCLVKGFYPSDIAVEWESNGQPENNYKTTPPVLDSDGSFFLYSKLTVDKSRWQQGNVFSCSVMHEALHNHYTQKSLSLSPGKGGGGSGGGGSGGGGSGGGGSDIQLTQSPSSLSASVGDRVTITCSASQDISNYLNWYQQKPGKAPKVLIYFTSSLHSGVPSRFSGSGSGTDFTLTISSLQPEDFATYYCQQYSTVPWTFGQGTKVEIKRTVAAPSVFIFPPSDEQLKSGTASVVCLLNNFYPREAKVQWKVDNALQSGNSQESVTEQDSKDSTYSLSSTLTLSKADYEKHKVYACEVTHQGLSSPVTKSFNRGECGGGGSGGGGSGGGGSGGGGSGGGGSEVQLVESGGGLVQPGGSLRLSCAASGYDFTHYGMNWVRQAPGKGLEWVGWINTYTGEPTYAADFKRRFTFSLDTSKSTAYLQMNSLRAEDTAVYYCAKYPYYYGTSHWYFDVWGQGTLVTVSSASTKGPSVFPLAPSSKSTSGGTAALGCLVKDYFPEPVTVSWNSGALTSGVHTFPAVLQSSGLYSLSSVVTVPSSSLGTQTYICNVNHKPSNTKVDKKVEPKSCDKTHL light chain (kappa): EIVLTQSPGTLSLSPGEIATLSCRASQNVRSDLAWYQQKPGQAPRLLIYDASNRATGIPDRFSGSGSGTDFTLTISSLQSEDFAVYYCQQYSNWPPLTFGGGTKVEIKRTVAAPSVFIFPPSDEQLKSGTASVVCLLNNFYPREAKVQWKVDNALQSGNSQESVTEQDSKDSTYSLSSTLTLSKADYEKHKVYACEVTHQGLSSPVTKSFNRGEC",7.06
2,"#18 (bispecific antibody, human IgG1, kappa, L234A L235A) heavy chain: DVQLVESGGGVVRPGESLRLSCTASGFTFDSYGMSWVRQAPGKGLEWVSSINVGDNTYYADSVRGRFIISRDSSRNTLYLQMNSLTAEDTAVYYCANWNSFFDYWGLGTLVTVSSASTKGPSVFPLAPSSKSTSGGTAALGCLVKDYFPEPVTVSWNSGALTSGVHTFPAVLQSSGLYSLSSVVTVPSSSLGTQTYICNVNHKPSNTKVDKKVEPKSCDKTHTCPPCPAPEAAGGPSVFLFPPKPKDTLMISRTPEVTCVVVDVSHEDPEVKFNWYVDGVEVHNAKTKPREEQYNSTYRVVSVLTVLHQDWLNGKEYKCKVSNKALGAPIEKTISKAKGQPREPQVYTLPPSREEMTKNQVSLTCLVKGFYPSDIAVEWESNGQPENNYKTTPPVLDSDGSFFLYSKLTVDKSRWQQGNVFSCSVMHEALHNHYTQKSLSLSPGKGGGGSGGGGSGGGGSGGGGSDIQLTQSPSSLSASVGDRVTITCSASQDISNYLNWYQQKPGKAPKVLIYFTSSLHSGVPSRFSGSGSGTDFTLTISSLQPEDFATYYCQQYSTVPWTFGQGTKVEIKRTVAAPSVFIFPPSDEQLKSGTASVVCLLNNFYPREAKVQWKVDNALQSGNSQESVTEQDSKDSTYSLSSTLTLSKADYEKHKVYACEVTHQGLSSPVTKSFNRGECGGGGSGGGGSGGGGSGGGGSGGGGSGGGGSGGGGSEVQLVESGGGLVQPGGSLRLSCAASGYDFTHYGMNWVRQAPGKGLEWVGWINTYTGEPTYAADFKRRFTFSLDTSKSTAYLQMNSLRAEDTAVYYCAKYPYYYGTSHWYFDVWGQGTLVTVSSASTKGPSVFPLAPSSKSTSGGTAALGCLVKDYFPEPVTVSWNSGALTSGVHTFPAVLQSSGLYSLSSVVTVPSSSLGTQTYICNVNHKPSNTKVDKKVEPKSCDKTHL light chain (kappa): EIVLTQSPGTLSLSPGEIATLSCRASQNVRSDLAWYQQKPGQAPRLLIYDASNRATGIPDRFSGSGSGTDFTLTISSLQSEDFAVYYCQQYSNWPPLTFGGGTKVEIKRTVAAPSVFIFPPSDEQLKSGTASVVCLLNNFYPREAKVQWKVDNALQSGNSQESVTEQDSKDSTYSLSSTLTLSKADYEKHKVYACEVTHQGLSSPVTKSFNRGEC",5.86
3,"#17 (bispecific antibody, human IgG1, kappa, L234A L235A) heavy chain: DVQLVESGGGVVRPGESLRLSCTASGFTFDSYGMSWVRQAPGKGLEWVSSINVGDNTYYADSVRGRFIISRDSSRNTLYLQMNSLTAEDTAVYYCANWNSFFDYWGLGTLVTVSSASTKGPSVFPLAPSSKSTSGGTAALGCLVKDYFPEPVTVSWNSGALTSGVHTFPAVLQSSGLYSLSSVVTVPSSSLGTQTYICNVNHKPSNTKVDKKVEPKSCDKTHTCPPCPAPEAAGGPSVFLFPPKPKDTLMISRTPEVTCVVVDVSHEDPEVKFNWYVDGVEVHNAKTKPREEQYNSTYRVVSVLTVLHQDWLNGKEYKCKVSNKALGAPIEKTISKAKGQPREPQVYTLPPSREEMTKNQVSLTCLVKGFYPSDIAVEWESNGQPENNYKTTPPVLDSDGSFFLYSKLTVDKSRWQQGNVFSCSVMHEALHNHYTQKSLSLSPGKGGGGSGGGGSGGGGSGGGGSDIQLTQSPSSLSASVGDRVTITCSASQDISNYLNWYQQKPGKAPKVLIYFTSSLHSGVPSRFSGSGSGTDFTLTISSLQPEDFATYYCQQYSTVPWTFGQGTKVEIKRTVAAPSVFIFPPSDEQLKSGTASVVCLLNNFYPREAKVQWKVDNALQSGNSQESVTEQDSKDSTYSLSSTLTLSKADYEKHKVYACEVTHQGLSSPVTKSFNRGECGGGGSGGGGSGGGGSGGGGSGGGGSGGGGSEVQLVESGGGLVQPGGSLRLSCAASGYDFTHYGMNWVRQAPGKGLEWVGWINTYTGEPTYAADFKRRFTFSLDTSKSTAYLQMNSLRAEDTAVYYCAKYPYYYGTSHWYFDVWGQGTLVTVSSASTKGPSVFPLAPSSKSTSGGTAALGCLVKDYFPEPVTVSWNSGALTSGVHTFPAVLQSSGLYSLSSVVTVPSSSLGTQTYICNVNHKPSNTKVDKKVEPKSCDKTHL light chain (kappa): EIVLTQSPGTLSLSPGEIATLSCRASQNVRSDLAWYQQKPGQAPRLLIYDASNRATGIPDRFSGSGSGTDFTLTISSLQSEDFAVYYCQQYSNWPPLTFGGGTKVEIKRTVAAPSVFIFPPSDEQLKSGTASVVCLLNNFYPREAKVQWKVDNALQSGNSQESVTEQDSKDSTYSLSSTLTLSKADYEKHKVYACEVTHQGLSSPVTKSFNRGEC",5.03

# Next, values leading:
row,"EC50, pTie2 in HUVEC (in vitro potency; the sheet's head prints no unit, EC50 in nM per legend paragraph 17) [nM]",Binder
1,6.37,"#19 (bispecific antibody, human IgG1, kappa, L234A L235A) heavy chain: DVQLVESGGGVVRPGESLRLSCTASGFTFDSYGMSWVRQAPGKGLEWVSSINVGDNTYYADSVRGRFIISRDSSRNTLYLQMNSLTAEDTAVYYCANWNSFFDYWGLGTLVTVSSASTKGPSVFPLAPSSKSTSGGTAALGCLVKDYFPEPVTVSWNSGALTSGVHTFPAVLQSSGLYSLSSVVTVPSSSLGTQTYICNVNHKPSNTKVDKKVEPKSCDKTHTCPPCPAPEAAGGPSVFLFPPKPKDTLMISRTPEVTCVVVDVSHEDPEVKFNWYVDGVEVHNAKTKPREEQYNSTYRVVSVLTVLHQDWLNGKEYKCKVSNKALGAPIEKTISKAKGQPREPQVYTLPPSREEMTKNQVSLTCLVKGFYPSDIAVEWESNGQPENNYKTTPPVLDSDGSFFLYSKLTVDKSRWQQGNVFSCSVMHEALHNHYTQKSLSLSPGKGGGGSGGGGSGGGGSGGGGSDIQLTQSPSSLSASVGDRVTITCSASQDISNYLNWYQQKPGKAPKVLIYFTSSLHSGVPSRFSGSGSGTDFTLTISSLQPEDFATYYCQQYSTVPWTFGQGTKVEIKRTVAAPSVFIFPPSDEQLKSGTASVVCLLNNFYPREAKVQWKVDNALQSGNSQESVTEQDSKDSTYSLSSTLTLSKADYEKHKVYACEVTHQGLSSPVTKSFNRGECGGGGSGGGGSGGGGSGGGGSGGGGSGGGGSGGGGSGGGGSGGGGSGGGGSEVQLVESGGGLVQPGGSLRLSCAASGYDFTHYGMNWVRQAPGKGLEWVGWINTYTGEPTYAADFKRRFTFSLDTSKSTAYLQMNSLRAEDTAVYYCAKYPYYYGTSHWYFDVWGQGTLVTVSSASTKGPSVFPLAPSSKSTSGGTAALGCLVKDYFPEPVTVSWNSGALTSGVHTFPAVLQSSGLYSLSSVVTVPSSSLGTQTYICNVNHKPSNTKVDKKVEPKSCDKTHL light chain (kappa): EIVLTQSPGTLSLSPGEIATLSCRASQNVRSDLAWYQQKPGQAPRLLIYDASNRATGIPDRFSGSGSGTDFTLTISSLQSEDFAVYYCQQYSNWPPLTFGGGTKVEIKRTVAAPSVFIFPPSDEQLKSGTASVVCLLNNFYPREAKVQWKVDNALQSGNSQESVTEQDSKDSTYSLSSTLTLSKADYEKHKVYACEVTHQGLSSPVTKSFNRGEC"
2,4.73,"#20 (bispecific antibody, human IgG1, kappa, L234A L235A) heavy chain: DVQLVESGGGVVRPGESLRLSCTASGFTFDSYGMSWVRQAPGKGLEWVSSINVGDNTYYADSVRGRFIISRDSSRNTLYLQMNSLTAEDTAVYYCANWNSFFDYWGLGTLVTVSSASTKGPSVFPLAPSSKSTSGGTAALGCLVKDYFPEPVTVSWNSGALTSGVHTFPAVLQSSGLYSLSSVVTVPSSSLGTQTYICNVNHKPSNTKVDKKVEPKSCDKTHTCPPCPAPEAAGGPSVFLFPPKPKDTLMISRTPEVTCVVVDVSHEDPEVKFNWYVDGVEVHNAKTKPREEQYNSTYRVVSVLTVLHQDWLNGKEYKCKVSNKALGAPIEKTISKAKGQPREPQVYTLPPSREEMTKNQVSLTCLVKGFYPSDIAVEWESNGQPENNYKTTPPVLDSDGSFFLYSKLTVDKSRWQQGNVFSCSVMHEALHNHYTQKSLSLSPGKGGGGSGGGGSGGGGSGGGGSGGGGSDIQLTQSPSSLSASVGDRVTITCSASQDISNYLNWYQQKPGKAPKVLIYFTSSLHSGVPSRFSGSGSGTDFTLTISSLQPEDFATYYCQQYSTVPWTFGQGTKVEIKRTVAAPSVFIFPPSDEQLKSGTASVVCLLNNFYPREAKVQWKVDNALQSGNSQESVTEQDSKDSTYSLSSTLTLSKADYEKHKVYACEVTHQGLSSPVTKSFNRGECGGGGSGGGGSGGGGSGGGGSGGGGSGGGGSGGGGSGGGGSGGGGSGGGGSEVQLVESGGGLVQPGGSLRLSCAASGYDFTHYGMNWVRQAPGKGLEWVGWINTYTGEPTYAADFKRRFTFSLDTSKSTAYLQMNSLRAEDTAVYYCAKYPYYYGTSHWYFDVWGQGTLVTVSSASTKGPSVFPLAPSSKSTSGGTAALGCLVKDYFPEPVTVSWNSGALTSGVHTFPAVLQSSGLYSLSSVVTVPSSSLGTQTYICNVNHKPSNTKVDKKVEPKSCDKTHL light chain (kappa): EIVLTQSPGTLSLSPGEIATLSCRASQNVRSDLAWYQQKPGQAPRLLIYDASNRATGIPDRFSGSGSGTDFTLTISSLQSEDFAVYYCQQYSNWPPLTFGGGTKVEIKRTVAAPSVFIFPPSDEQLKSGTASVVCLLNNFYPREAKVQWKVDNALQSGNSQESVTEQDSKDSTYSLSSTLTLSKADYEKHKVYACEVTHQGLSSPVTKSFNRGEC"
